{"source": "the supplement of paper PMC3334620", "note": "Over roughly 33,000 sequences, “E-score (-0.5 to 0.5)” has its median near -0.016; the highest 2% begin near 0.31. The list shows a part of the results."}
{"molecular_target": "Cst6 (UniProt P40535)", "assay": "PBM E-score (8-mer binding enrichment) (E-score (-0.5 to 0.5)); higher = stronger / more preferred TF binding; most listed sequences are background and not binding sites", "settings": "protein concentration: 200 nM; construct: GST-DNA-binding domain", "how_it_was_run": "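Using PURExpress in vitro transcription/translation, GST-tagged yeast transcription factors were made in full-length or DNA-binding-domain form. These were applied at about 100-200 nM to double-stranded universal all-10-mer Agilent arrays, and bound protein was detected with fluorescent anti-GST. Scans were normalised with masliner before the Universal PBM Analysis Suite assigned E-scores to ungapped eight-base words pooled with their reverse complements.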"}
{"sequence": "AAGGGAGA", "PBM E-score": -0.17}
{"sequence": "CACCTTGC", "PBM E-score": 0.0146}
{"sequence": "GCTGCATA", "PBM E-score": 0.165}
{"sequence": "GATCATGA", "PBM E-score": 0.247}
{"sequence": "CTCATCAC", "PBM E-score": 0.146}
{"sequence": "AGCTTTCA", "PBM E-score": -0.0848}
{"sequence": "ACCCCGAT", "PBM E-score": -0.157}
{"sequence": "AATGGCCA", "PBM E-score": -0.265}
{"sequence": "AGCGTCGA", "PBM E-score": 0.111}
{"sequence": "CAAACAGC", "PBM E-score": 0.0663}
{"sequence": "GGTTGGAC", "PBM E-score": -0.239}
{"sequence": "CGACGGTC", "PBM E-score": -0.169}
{"sequence": "AAGTGCTA", "PBM E-score": -0.0558}
{"sequence": "TCCACTAA", "PBM E-score": -0.0375}
{"sequence": "ACTCCTAA", "PBM E-score": 0.0155}
{"sequence": "ATAACATA", "PBM E-score": 0.264}
{"sequence": "ACTGCGTA", "PBM E-score": -0.114}
{"sequence": "CGCCCGAG", "PBM E-score": -0.242}
{"sequence": "CTGGGTAA", "PBM E-score": -0.0796}
{"sequence": "AAGGGCCA", "PBM E-score": -0.237}
{"sequence": "CGCGCAAA", "PBM E-score": 0.174}
{"sequence": "GAAACTAA", "PBM E-score": 0.067}
{"sequence": "GCTATGAA", "PBM E-score": 0.0103}
{"sequence": "AACACAAT", "PBM E-score": 0.21}
{"sequence": "ATTGTACG", "PBM E-score": 0.129}
{"sequence": "GTCCAGTA", "PBM E-score": -0.19}
{"sequence": "ATCGGGTG", "PBM E-score": 0.0966}
{"sequence": "CTGCCCCA", "PBM E-score": -0.224}
{"sequence": "ATACACGC", "PBM E-score": 0.0455}
{"sequence": "AATCCGCA", "PBM E-score": -0.0116}
{"sequence": "AAGGTATC", "PBM E-score": -0.0653}
{"sequence": "CTGGCGTA", "PBM E-score": -0.193}
{"sequence": "CTATGGTC", "PBM E-score": -0.155}
{"sequence": "AATGTGCT", "PBM E-score": 0.0677}
{"sequence": "TCCGGTCA", "PBM E-score": -0.15}
{"sequence": "ACGCTTTC", "PBM E-score": -0.0857}
{"sequence": "CTGGCATC", "PBM E-score": -0.199}
{"sequence": "AGGGCCTA", "PBM E-score": -0.327}
{"sequence": "CTGGCCTC", "PBM E-score": -0.2}
{"sequence": "CCTCTAAG", "PBM E-score": -0.173}
{"sequence": "GGGCGTAA", "PBM E-score": -0.0156}
{"sequence": "GACTTCTA", "PBM E-score": -0.23}
{"sequence": "AGGCAGAC", "PBM E-score": -0.207}
{"sequence": "ACTCGACT", "PBM E-score": -0.251}
{"sequence": "CCTGAACA", "PBM E-score": -0.0247}
{"sequence": "GAGCCCAC", "PBM E-score": -0.346}
{"sequence": "ACGGTGGA", "PBM E-score": -0.31}
{"sequence": "CCTAAGTC", "PBM E-score": -0.231}
{"sequence": "AGTGAAAT", "PBM E-score": 0.0683}
{"sequence": "CGGGGGAC", "PBM E-score": -0.363}
{"sequence": "CAAAGTAG", "PBM E-score": -0.0768}
{"sequence": "AATCTCCA", "PBM E-score": -0.0897}
{"sequence": "ACTATAGG", "PBM E-score": -0.191}
{"sequence": "ACTTCACC", "PBM E-score": 0.186}
{"sequence": "AGCTTATA", "PBM E-score": -0.00669}
{"sequence": "CCCTGAGC", "PBM E-score": -0.0998}
{"sequence": "CATTGGAA", "PBM E-score": 0.144}
{"sequence": "ACCATCAG", "PBM E-score": -0.192}
{"sequence": "CCATATTA", "PBM E-score": 0.0718}
{"sequence": "GAGATAGA", "PBM E-score": -0.0453}
{"sequence": "TCCATGGA", "PBM E-score": 0.0704}
{"sequence": "GGCCTCTA", "PBM E-score": -0.279}
{"sequence": "TAGTGTAA", "PBM E-score": 0.14}
{"sequence": "TATGCCCA", "PBM E-score": -0.189}
{"sequence": "AAATGCAC", "PBM E-score": -0.0406}
{"sequence": "ATCAAGTG", "PBM E-score": 0.0496}
{"sequence": "AAGGAAGA", "PBM E-score": -0.116}
{"sequence": "ACCTGCTG", "PBM E-score": 0.0382}
{"sequence": "AAACCCGA", "PBM E-score": 0.149}
{"sequence": "AGGCATGC", "PBM E-score": -0.0314}
{"sequence": "CCCATGTA", "PBM E-score": -0.0602}
{"sequence": "CGCGAGAC", "PBM E-score": -0.0561}
{"sequence": "AGGAGTTC", "PBM E-score": -0.272}
{"sequence": "AACTTCAG", "PBM E-score": -0.0247}
{"sequence": "GGTTGAAA", "PBM E-score": 0.0161}
{"sequence": "AAGTGTAC", "PBM E-score": -0.0327}
{"sequence": "GTGATTGA", "PBM E-score": 0.171}
{"sequence": "CGCAAACC", "PBM E-score": 0.00084}
{"sequence": "CCAAATTC", "PBM E-score": -0.0587}
{"sequence": "ATTGTAGG", "PBM E-score": 0.119}
{"sequence": "CCCTGGAG", "PBM E-score": -0.222}
{"sequence": "AGGGGACA", "PBM E-score": -0.191}
{"sequence": "CTATATTA", "PBM E-score": 0.333}
{"sequence": "ATGACCCA", "PBM E-score": 0.0852}
{"sequence": "CCCATAGC", "PBM E-score": -0.342}
{"sequence": "CCTACCTC", "PBM E-score": -0.314}
{"sequence": "GTCGGGAA", "PBM E-score": -0.156}
{"sequence": "CCCCCGTA", "PBM E-score": -0.317}
{"sequence": "CTACTGAA", "PBM E-score": 0.114}
{"sequence": "TACTTCAA", "PBM E-score": 0.176}
{"sequence": "CGGGCAAG", "PBM E-score": -0.208}
{"sequence": "CAACGTAA", "PBM E-score": 0.329}
{"sequence": "ATAATTGC", "PBM E-score": 0.105}
{"sequence": "CGATAAGA", "PBM E-score": 0.0238}
{"sequence": "CGTCTGAG", "PBM E-score": 0.00936}
{"sequence": "GGTGGCAA", "PBM E-score": -0.248}
{"sequence": "AGAGTTGG", "PBM E-score": -0.0839}
{"sequence": "CAAGGTAC", "PBM E-score": -0.0891}
{"sequence": "CATGTCTC", "PBM E-score": -0.11}
{"sequence": "CGTTCATC", "PBM E-score": 0.054}
{"sequence": "ATACGTAC", "PBM E-score": 0.198}
{"sequence": "ATTACAGA", "PBM E-score": 0.187}
{"sequence": "AAGAAGTG", "PBM E-score": 0.0573}
{"sequence": "CGCTAACA", "PBM E-score": 0.0299}
{"sequence": "TCTTGCAA", "PBM E-score": 0.105}
{"sequence": "ATATTTTA", "PBM E-score": 0.233}
{"sequence": "CGAGTATA", "PBM E-score": 0.0251}
{"sequence": "ACATATGC", "PBM E-score": -0.158}
{"sequence": "CCCAGGGA", "PBM E-score": -0.37}
